# Results taken from paper PMC4336329 (PLoS ONE, 2015).
# Among all 310,000 compounds or so, about 2,200 (0.71%) showed an effect of 50% or more. The effect is printed as a negative number. The list shows a part of the results.
# Molecular target: human ether-à-go-go-related gene (hERG) potassium channel (human, UniProt Q12809)
# Assay: primary screen, population patch clamp on CHO cells stably expressing hERG
# human ether-à-go-go-related gene (hERG) potassium channel, sequence (Q12809 whole entry, looked up): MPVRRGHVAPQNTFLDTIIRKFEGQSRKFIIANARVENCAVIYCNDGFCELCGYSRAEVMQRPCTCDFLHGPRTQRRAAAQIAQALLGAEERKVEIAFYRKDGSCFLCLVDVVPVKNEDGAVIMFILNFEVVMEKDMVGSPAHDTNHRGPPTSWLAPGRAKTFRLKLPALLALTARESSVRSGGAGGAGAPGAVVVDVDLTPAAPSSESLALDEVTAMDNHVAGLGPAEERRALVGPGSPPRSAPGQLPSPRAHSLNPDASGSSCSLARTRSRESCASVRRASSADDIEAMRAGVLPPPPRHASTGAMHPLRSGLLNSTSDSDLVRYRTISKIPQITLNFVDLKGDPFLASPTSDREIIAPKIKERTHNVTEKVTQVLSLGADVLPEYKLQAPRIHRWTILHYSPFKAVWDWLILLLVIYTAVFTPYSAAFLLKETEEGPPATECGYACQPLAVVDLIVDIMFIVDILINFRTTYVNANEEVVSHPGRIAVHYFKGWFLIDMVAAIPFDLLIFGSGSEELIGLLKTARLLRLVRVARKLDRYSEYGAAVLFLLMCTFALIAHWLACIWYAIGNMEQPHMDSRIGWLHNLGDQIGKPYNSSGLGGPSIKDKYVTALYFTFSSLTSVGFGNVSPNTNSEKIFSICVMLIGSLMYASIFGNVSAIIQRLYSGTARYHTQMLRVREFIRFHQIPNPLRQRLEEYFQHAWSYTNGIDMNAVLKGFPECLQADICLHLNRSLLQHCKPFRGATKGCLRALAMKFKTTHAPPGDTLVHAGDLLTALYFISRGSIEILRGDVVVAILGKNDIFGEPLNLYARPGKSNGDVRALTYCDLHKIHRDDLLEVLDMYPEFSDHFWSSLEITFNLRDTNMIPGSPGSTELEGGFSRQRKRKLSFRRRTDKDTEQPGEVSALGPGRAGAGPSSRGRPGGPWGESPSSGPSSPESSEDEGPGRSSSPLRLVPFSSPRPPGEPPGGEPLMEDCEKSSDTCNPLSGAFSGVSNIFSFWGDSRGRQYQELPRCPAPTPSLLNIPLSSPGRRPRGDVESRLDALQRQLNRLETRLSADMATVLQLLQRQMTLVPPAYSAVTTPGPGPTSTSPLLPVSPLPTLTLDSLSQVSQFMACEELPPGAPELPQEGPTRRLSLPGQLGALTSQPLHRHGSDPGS
row,SMILES,"hERG current change (%, negative = inhibition) at 1uM [%]"
1,COc1ccc(-c2csc(NC(=O)CN3C(=O)NC4(CCCC4)C3=O)n2)cc1,1.42
2,CC(C)c1ccccc1NC(=O)COc1ccc(C(=O)NCCc2ccccc2)cc1,1.31
3,Cc1cc(C)c(C#N)c(SCC(=O)c2cc(C)n(CCc3ccccc3)c2C)n1,4.88
4,O=C(Nc1nc2c(F)cc(F)cc2s1)c1ccc([N+](=O)[O-])o1,17
5,COc1ccc(Cl)cc1N1Cc2ccccc2C1,14.2
6,CCOC(=O)C1=C(COC(=O)/C=C/c2cccc([N+](=O)[O-])c2)NC(=O)NC1C (stereo not drawn),10.1
7,CCOC(=O)Nc1ccc2c(COC(=O)CN(C)S(=O)(=O)c3ccc(C)cc3)cc(=O)oc2c1,-1.15
8,CCCCn1nnnc1NCc1ccc(N2CCCC2)cc1,-12.4
9,COc1cccc(-c2ccc3ncnc(NCc4cccs4)c3c2)c1,13.1
10,CCOc1ccccc1NC(=O)c1ccc2c(=O)n3c(nc2c1)CCCCC3,1.18
11,CC(=O)c1cc2c(cc1NC(=O)Cc1ccsc1)OCO2,12
12,CC1CC(C)CN(S(=O)(=O)c2ccc(NC(=O)[C@@H]3CCCN3C(=O)c3cccs3)cc2)C1 (stereo partly drawn),10.3
13,COc1cccc(CNC(=O)CCC2CCCN(C(=O)c3cc(C4CC4)[nH]n3)C2)c1 (stereo not drawn),10.6
14,O=C(COc1ccccc1)Nc1nc(-c2cccs2)cs1,5
15,O=C(NNC(=O)c1ccccc1-c1ccccc1C(=O)O)c1ccccc1,15.6
16,CC(C)C(=O)Nc1cccc(C(=O)Nc2nccs2)c1,18.3
17,CCCOc1ccc(C2CC(=O)Nc3cc(OC)c(OC)cc32)cc1 (stereo not drawn),12
18,CN1CCN(NC(=O)NC2CCCCC2)CC1,10.6
19,COc1ccc(CNC(=S)Nc2ccc(Br)cc2)cc1,10.9
20,O=C1CSC(c2cccc(Cl)c2Cl)N1c1ccccn1 (stereo not drawn),7.63
21,Nc1ccc(Nc2ccccc2N)cc1,19.6
22,CC(=O)Nc1ccc(SCC(=O)OCC(=O)NC(=O)NC2CCCC2)cc1,7.63

row,SMILES,"hERG current change (%, negative = inhibition) at 1uM [%]"
1,CC1(C)NC(=O)N(CC(O)COc2ccc(-c3ccccc3)cc2)C1=O (stereo not drawn),7.39
2,O=C(CN1CCOCC1)Nc1nc2ccc(Br)cc2s1,-24.5
3,C/C(=N\NC(=O)c1ccc(Cn2cc([N+](=O)[O-])cn2)o1)c1cccc(NC(=O)C(C)C)c1,13.6
4,O=C1c2cccc3cccc(c23)C(=O)N1c1ccc2ncccc2c1,15.4
5,CC1(C)C[C@H]2C=C(C=O)[C@]3(C=O)C[C@]3(C)[C@H]2C1,6.2
6,O=C(CN1C(=O)c2cccc3cccc1c23)NCc1cccnc1,10.5
7,CCOCC(=O)Nc1nc(-c2ccccc2)c(CC)s1,-3.77
8,O=C(NCc1cc(C(F)(F)F)ccc1F)C1CCC(=O)N(C2CC2)C1 (stereo not drawn),6.6
9,Cc1ccc(-c2n[nH]c(=S)n2/N=C/C=C/c2ccccc2[N+](=O)[O-])cc1,3.5
10,Cc1cc(Cl)ccc1OCC(=O)NNC(=O)C1CSC2(C)CCC(=O)N12 (stereo not drawn),2.3
11,CCOc1cc(N2CCOCC2)c(OCC)cc1NC(=O)C1CC(=O)N(c2ccc(C)cc2)C1 (stereo not drawn),-0.693
12,CC(C)(C)C(=O)c1sc2nc(-c3cccs3)cc(C(F)(F)F)c2c1N,7.52
13,Cc1ccc(Cl)cc1NC(=O)CN1C(=O)NC2(CCCCCC2)C1=O,0.826
14,Cc1ccc(Cn2ncc3c(N4CCN(c5ccccc5C)CC4)ncnc32)cc1,9.24
15,Cc1ccc(C(=O)Oc2ccc3c(c2)ncn3C)cc1,5.74
16,COc1ccc(C[C@H]2CN3C(=NC[C@@H]3Cc3ccc(O)cc3)N2CCNC(=O)c2ccc(C)c(Br)c2)cc1,-18.4
17,CC1CC(C)CN(C(=O)CCC(=O)Nc2nnc(C3CCCCC3)s2)C1 (stereo not drawn),18.6
18,CCSc1ccc([C@@H]2[C@@H]3C(=O)N(C)C(=O)[C@@H]3[C@]3(C(=O)OC)CCCCN23)cc1.O=C(O)C(F)(F)F,11.9
19,CCOC(=O)c1c(-c2ccccc2)csc1NC(=O)/C(C#N)=C/c1ccc(O)c(OC)c1,3.15
20,COc1cc(/C=C2\SC(N)=NC2=O)cc(OC)c1,2.09
21,CCn1c(COc2ccc(C)cc2)nnc1SCC(=O)NCc1ccco1,0.55
22,COc1cccc(C(=O)Cn2c(=O)n(CC3CCCO3)c(=O)c3ccccc32)c1 (stereo not drawn),8.58

row,SMILES,"hERG current change (%, negative = inhibition) at 1uM [%]"
1,Cl.N=c1sccn1CC(=O)Nc1ccc(SC(F)F)cc1,-29
2,COc1ccc(CNC(=O)c2c(N)n(CCCN3CCOCC3)c3nc4ccccc4nc23)cc1,2.88
3,Cc1ccc(CNC(=O)CN(c2cccc([N+](=O)[O-])c2)S(C)(=O)=O)cc1,7.48
4,O=C(O)c1cc2c(ccc3ccccc32)[nH]1,13
5,COc1ccc(NC(=O)O/N=C/c2ccncc2)cc1,19
6,O=C(Cc1cccs1)Nc1cccc([N+](=O)[O-])c1,-5.24
7,CCOc1ccc2nc(NCCCNS(=O)(=O)c3ccc(C)cc3)c(C#N)cc2c1,4.04
8,CS(=O)(=O)Nc1ccccc1C(=O)c1ccccc1,6.47
9,Cn1c(N)c(C(=O)COC(=O)C2(c3ccc(F)cc3)CCCC2)c(=O)n(C)c1=O,17
10,Cc1ccc(-c2nn(CCC(=O)NN3CCOCC3)c(=O)c3ccccc23)cc1,6.21
11,CCN(C(=O)COC(=O)CNC(=O)c1ccc(F)cc1)C1CCS(=O)(=O)C1 (stereo not drawn),9.62
12,CCCOc1ccc(N2C(=O)CC(NCC(=O)OCC)C2=O)cc1 (stereo not drawn),12.3
13,CCOc1ccc(S(=O)(=O)N2CCCCC2)cc1NC(=O)CCc1ccc(OC)cc1,12.7
14,O=C(O)Cc1c(-c2ccccc2)c2cc(Br)ccc2[nH]c1=O,10.3
15,Fc1cccc(Cl)c1/C=N/n1c(-c2cccnc2)n[nH]c1=S,5.58
16,CC(C)(C)c1ccc(Cn2c(=N)n(CC(O)c3ccco3)c3ccccc32)cc1.Cl (stereo not drawn),-7.74
17,O=C(O)c1ccccc1SCC(=O)N1CCOCC1,11.3
18,CCOC(=O)CNC(=O)c1cc(OC)cc(OC)c1,16.1
19,Clc1ccc2c(c1)C1=C(C(c3ccncc3)O2)C(c2ccc(Br)cc2)n2ncnc2N1 (stereo not drawn),13.3
20,Cc1cc(C)c[n+](-c2nc3ccccc3nc2[N-]S(=O)(=O)c2ccc(Cl)cc2)c1,7.19
21,COC(=O)C1=C(C)N(CC2CC2)C(=NCc2cc(OC)c(OC)c(OC)c2)N[C@H]1c1ccccc1,7.25
22,N#CCSc1nc2[nH]ncc2c(=O)n1-c1ccccc1Br,-0.962

row,SMILES,"hERG current change (%, negative = inhibition) at 1uM [%]"
1,CN(C1=C(NC(=O)c2ccc(Cl)cc2)C(=O)c2ccccc2C1=O)c1ccccc1,8.8
2,Cc1nc2nc(N)nn2c(C)c1C/C=C/c1ccccc1,2.83
3,O=C(CCNS(=O)(=O)c1ccc(Br)s1)NCc1ccc2c(c1)OCO2,5.23
4,O=C(N1CCCCCC1)N1CCN(S(=O)(=O)c2cccc([N+](=O)[O-])c2)CC1,-14.8
5,CN1CCc2c(sc(NC(=O)c3ccc(S(=O)(=O)N4CCCCCC4)cc3)c2C(N)=O)C1,19.1
6,COC(=O)c1ccc(Cn2cnc3c(cnn3-c3ccc(Cl)cc3)c2=O)o1,9.26
7,COc1ccccc1CNC(=O)c1n[nH]c2ccccc12,10.8
8,COc1cccc(CNC(=O)CN2C(=O)CSc3ccc(S(=O)(=O)N4CCOCC4)cc32)c1,17.5
9,CN(C)CCCn1c2c(c(SCC(=O)Nc3ccc4c(c3)OCO4)nc1=O)CCCC2,-4.13
10,O=C(Oc1ccccc1N1CCOCC1)c1ccccc1,9.43
11,O=C(CN1C(=O)CCSc2ccccc21)Nc1ccc2c(c1)OCO2,-4.53
12,CO/N=C\c1cc(C(=O)c2ccc(Cl)cc2Cl)cn1C,11.4
13,CCc1ccc(OCC(=O)N2CCN(c3ccccn3)CC2)c(Br)c1,11.2
14,CCOC(=O)C1CCC(CNCc2ccc(Cl)cc2)CC1 (stereo not drawn),-19.8
15,CS(=O)(=O)c1ncc(Cl)c(C(=O)Nc2ccc(N3CCOCC3)cc2)n1,12.5
16,CCN(CC)CC(=O)Nc1sc(C)c(C)c1C(=O)c1ccc(C)cc1,0.368
17,CCOc1ccc(N2CC(O)(c3cccs3)[N+]3=C2CCCC3)cc1.[Br-] (stereo not drawn),-32.5
18,Cc1cc(Nc2ccccc2)nn1C(=O)c1ccc(Cl)cc1,16
19,CC(Oc1ccccc1)C(=O)N=Nc1c(O)[nH]c2ccc([N+](=O)[O-])cc12 (stereo not drawn),8.53
20,COc1ccccc1N(CC(=O)NC(C)C)S(=O)(=O)c1cccs1,13.8
21,CCN1CC2CCCC3(C1)C(=O)NC1(CCCCC1)N=C23 (stereo not drawn),9.14
